# Results published in the supplement of paper PMC8728848.
# The other results are listed elsewhere or left out.
# B1: SSR2 (Sclerotium rolfsii) (protein)
# chain: MVYKITVRVYQTNPDAFFHPVEKTVWKYANGGTWSITDDQHVLTMGGSGTSGTLRFHADNGESFTATFGVHNYKRWCDIVTNLAADETGMVINQQYYSQKNREEARERQLSNYQVKNAKGRNFQIVYTEAEGNDLHANLIIG
# Columns and labels:
# Experiment in all cases: glycan array binding signal (z-score within array); higher = stronger binding
# Details in all cases: glycan notation: IUPAC condensed, linker removed
# [1] = molecular target: Gal(b1-4)GlcNAc(b1-2)Man(a1-6)[GlcNAc(b1-2)Man(a1-3)]Man(b1-4)GlcNAc(b1-4)GlcNAc
# Method in brief: (§1)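 Negative Z-scores can be read as non-binding. The Z-score is calculated within each array and then averaged across arrays of one protein sequence at different concentrations or buffers and across linkers. Arrays, 3228 in all, were curated from the Consortium for Functional Glycomics database and kept only where the protein sequence was available.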
# [2] = molecular target: Gal(b1-4)GlcNAc(b1-2)Man(a1-6)[Man(a1-3)]Man(b1-4)GlcNAc(b1-4)GlcNAc
# Method in brief: as §1
# [3] = molecular target: Gal(b1-4)GlcNAc(b1-2)[Gal(b1-4)GlcNAc(b1-4)]Man(a1-3)[Gal(b1-4)GlcNAc(b1-2)Man(a1-6)]Man(b1-4)GlcNAc(b1-4)GlcNAc
# Method in brief: as §1
# [4] = molecular target: Gal(b1-4)GlcNAc(b1-2)[Gal(b1-4)GlcNAc(b1-4)]Man(a1-3)[Gal(b1-4)GlcNAc(b1-2)[Gal(b1-4)GlcNAc(b1-6)]Man(a1-6)]Man(b1-4)GlcNAc(b1-4)GlcNAc
# Method in brief: as §1
# [5] = molecular target: Gal(b1-4)GlcNAc(b1-2)[Gal(b1-4)GlcNAc(b1-4)]Man(a1-3)[GlcNAc(b1-4)][Gal(b1-4)GlcNAc(b1-2)Man(a1-6)]Man(b1-4)GlcNAc(b1-4)GlcNAc
# Method in brief: as §1
# [6] = molecular target: Gal(b1-4)GlcNAc(b1-2)[Gal(b1-4)GlcNAc(b1-4)]Man(a1-3)[GlcNAc(b1-4)][Gal(b1-4)GlcNAc(b1-2)[Gal(b1-4)GlcNAc(b1-6)]Man(a1-6)]Man(b1-4)GlcNAc(b1-4)GlcNAc
# Method in brief: as §1
# [7] = molecular target: Gal(b1-4)GlcNAc(b1-2)[Gal(b1-4)GlcNAc(b1-6)]Man(a1-6)[Gal(b1-4)GlcNAc(b1-2)Man(a1-3)]Man(b1-4)GlcNAc(b1-4)GlcNAc
# Method in brief: as §1
# [8] = molecular target: Gal(b1-4)GlcNAc(b1-2)[Gal(b1-4)GlcNAc(b1-6)]Man(a1-6)[Gal(b1-4)GlcNAc(b1-2)Man(a1-3)]Man(b1-4)GlcNAc(b1-4)[Fuc(a1-6)]GlcNAc
# Method in brief: as §1
# [9] = molecular target: Gal(b1-4)GlcNAc(b1-2)[Gal(b1-4)GlcNAc(b1-6)]Man(a1-6)[GlcNAc(b1-4)][Gal(b1-4)GlcNAc(b1-2)Man(a1-3)]Man(b1-4)GlcNAc(b1-4)GlcNAc
# Method in brief: as §1
# [10] = molecular target: Gal(b1-4)GlcNAc(b1-2)[Gal(b1-4)GlcNAc(b1-6)]Man(a1-6)[GlcNAc(b1-4)][Gal(b1-4)GlcNAc(b1-2)[Gal(b1-4)GlcNAc(b1-4)]Man(a1-3)]Man(b1-4)GlcNAc(b1-4)[Fuc(a1-6)]GlcNAc
# Method in brief: as §1
# [11] = molecular target: Gal(b1-4)GlcNAc(b1-3)Gal(b1-3)GalNAc
# Method in brief: as §1
# [12] = molecular target: Gal(b1-4)GlcNAc(b1-3)Gal(b1-3)GlcNAc
# Method in brief: as §1
# [13] = molecular target: Gal(b1-4)GlcNAc(b1-3)Gal(b1-4)Glc
# Method in brief: as §1
# [14] = molecular target: Gal(b1-4)GlcNAc(b1-3)Gal(b1-4)GlcNAc
# Method in brief: as §1
# [15] = molecular target: Gal(b1-4)GlcNAc(b1-3)Gal(b1-4)GlcNAc(b1-2)Man(a1-3)[Gal(b1-4)GlcNAc(b1-3)Gal(b1-4)GlcNAc(b1-2)Man(a1-6)]Man(b1-4)GlcNAc(b1-4)GlcNAc
# Method in brief: as §1
# [16] = molecular target: Gal(b1-4)GlcNAc(b1-3)Gal(b1-4)GlcNAc(b1-2)Man(a1-3)[Gal(b1-4)GlcNAc(b1-3)Gal(b1-4)GlcNAc(b1-2)Man(a1-6)]Man(b1-4)GlcNAc(b1-4)[Fuc(a1-6)]GlcNAc
# Method in brief: as §1
# [17] = molecular target: Gal(b1-4)GlcNAc(b1-3)Gal(b1-4)GlcNAc(b1-2)[Gal(b1-4)GlcNAc(b1-3)Gal(b1-4)GlcNAc(b1-6)]Man(a1-6)[Gal(b1-4)GlcNAc(b1-3)Gal(b1-4)GlcNAc(b1-2)Man(a1-3)]Man(b1-4)GlcNAc(b1-4)GlcNAc
# Method in brief: as §1
# [18] = molecular target: Gal(b1-4)GlcNAc(b1-3)Gal(b1-4)GlcNAc(b1-2)[Gal(b1-4)GlcNAc(b1-3)Gal(b1-4)GlcNAc(b1-6)]Man(a1-6)[Gal(b1-4)GlcNAc(b1-3)Gal(b1-4)GlcNAc(b1-2)Man(a1-3)]Man(b1-4)GlcNAc(b1-4)[Fuc(a1-6)]GlcNAc
# Method in brief: as §1
# [19] = molecular target: Gal(b1-4)GlcNAc(b1-3)Gal(b1-4)GlcNAc(b1-3)Gal(b1-4)GlcNAc
# Method in brief: as §1
# [20] = molecular target: Gal(b1-4)GlcNAc(b1-3)Gal(b1-4)GlcNAc(b1-3)Gal(b1-4)GlcNAc(b1-2)Man(a1-3)[Gal(b1-4)GlcNAc(b1-3)Gal(b1-4)GlcNAc(b1-3)Gal(b1-4)GlcNAc(b1-2)Man(a1-6)]Man(b1-4)GlcNAc(b1-4)GlcNAc
# Method in brief: as §1
# [21] = molecular target: Gal(b1-4)GlcNAc(b1-3)Gal(b1-4)GlcNAc(b1-3)Gal(b1-4)GlcNAc(b1-2)Man(a1-3)[Gal(b1-4)GlcNAc(b1-3)Gal(b1-4)GlcNAc(b1-3)Gal(b1-4)GlcNAc(b1-2)Man(a1-6)]Man(b1-4)GlcNAc(b1-4)[Fuc(a1-6)]GlcNAc
# Method in brief: as §1
# [22] = molecular target: Gal(b1-4)GlcNAc(b1-3)Gal(b1-4)GlcNAc(b1-3)Gal(b1-4)GlcNAc(b1-2)[Gal(b1-4)GlcNAc(b1-3)Gal(b1-4)GlcNAc(b1-3)Gal(b1-4)GlcNAc(b1-6)]Man(a1-6)[Gal(b1-4)GlcNAc(b1-3)Gal(b1-4)GlcNAc(b1-3)Gal(b1-4)GlcNAc(b1-2)Man(a1-3)]Man(b1-4)GlcNAc(b1-4)[Fuc(a1-6)]GlcNAc
# Method in brief: as §1
binder,measurement,setting,value
B1,glycan array binding signal (z-score),[1],3.34
same,glycan array binding signal (z-score),[2],-0.278
same,glycan array binding signal (z-score),[3],-0.285
same,glycan array binding signal (z-score),[4],-0.291
same,glycan array binding signal (z-score),[5],-0.286
same,glycan array binding signal (z-score),[6],-0.287
same,glycan array binding signal (z-score),[7],-0.279
same,glycan array binding signal (z-score),[8],-0.279
same,glycan array binding signal (z-score),[9],-0.288
same,glycan array binding signal (z-score),[10],-0.266
same,glycan array binding signal (z-score),[11],1.74
same,glycan array binding signal (z-score),[12],-0.294
same,glycan array binding signal (z-score),[13],-0.281
same,glycan array binding signal (z-score),[14],-0.28
same,glycan array binding signal (z-score),[15],-0.197
same,glycan array binding signal (z-score),[16],-0.265
same,glycan array binding signal (z-score),[17],-0.258
same,glycan array binding signal (z-score),[18],-0.229
same,glycan array binding signal (z-score),[19],-0.275
same,glycan array binding signal (z-score),[20],-0.206
same,glycan array binding signal (z-score),[21],-0.25
same,glycan array binding signal (z-score),[22],-0.254
